Measurements reported in PubChem BioAssay AID2147 (National Center for Advancing Translational Sciences (NCATS), 2009).
Hit rate of the full screen: of about 230,000 compounds, about 3,600 (1.6%) were called active. The shares of active, inactive and inconclusive entries below differ from those in the screen. The call rests on the fitted dose curve; in most records, active means well fitted inhibition curve with a large enough effect (not every such curve was filed as active); inconclusive means small, poorly fitted or top-dose-only effect, or another doubt; inactive means no such curve, though single readings can be large or run the other way. Potencies of inconclusive entries are doubtful fits and often do not repeat.

Molecular target: Lysine-specific demethylase 4E (Homo sapiens) (UniProt B2RXH2)
Experiment: qHTS Assay for Inhibitors of Human Jumonji Domain Containing 2E (JMJD2E)
Conditions: JMJD2E catalytic domain, FDH-coupled NADH fluorescence (FDH is formaldehyde dehydrogenase); series mostly up to 57.1 µM
Further: nearly all actives have a fitted effect of over 50% in size.
Potency means the concentration at half of the fitted maximal effect; tags describe the fitted curve by direction and shape.

Sequence of UniProt B2RXH2 (B2RXH2 whole entry, looked up, the tested form may be a part): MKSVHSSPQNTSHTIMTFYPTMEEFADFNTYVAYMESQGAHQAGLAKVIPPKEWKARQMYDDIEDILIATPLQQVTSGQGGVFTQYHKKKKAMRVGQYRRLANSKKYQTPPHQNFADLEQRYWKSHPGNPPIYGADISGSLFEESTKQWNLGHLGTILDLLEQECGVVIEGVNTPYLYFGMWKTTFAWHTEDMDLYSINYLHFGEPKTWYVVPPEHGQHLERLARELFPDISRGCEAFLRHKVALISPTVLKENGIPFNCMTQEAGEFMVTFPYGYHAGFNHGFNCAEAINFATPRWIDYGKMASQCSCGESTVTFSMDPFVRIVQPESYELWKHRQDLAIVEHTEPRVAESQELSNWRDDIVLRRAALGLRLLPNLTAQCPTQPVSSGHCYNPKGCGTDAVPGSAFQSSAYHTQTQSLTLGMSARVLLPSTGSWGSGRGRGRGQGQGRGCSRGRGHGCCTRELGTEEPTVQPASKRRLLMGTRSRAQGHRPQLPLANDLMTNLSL

| Compound | Potency |
| --- | --- |
| COc1ccc(-c2ocnc2C(=O)N2CCN(Cc3cccnc3)CC2)cc1 | inconclusive: 39.8 µM [inhibitor, partial curve] |
| Cc1c(C(=O)NCCN2C(=O)S/C(=C\c3cccnc3)C2=O)cccc1[N+](=O)[O-] | inactive |
| Cc1nc2sc3c(c2c(=N)n1N)CCCC3 | inconclusive: 39.8 µM [inhibitor, single point] |
| CC/C(=N\Nc1ccc([N+](=O)[O-])cc1)c1ccccc1 | inactive |
| CCCC(=O)Nc1ccc(-c2csc(N/N=C\c3ccncc3)n2)cc1 | inconclusive: 28.2 µM [inhibitor, single point] |
| Cc1ccc(S(=O)(=O)NNC(=O)c2cccs2)c(C)c1 | inactive |
| CCOC(=O)c1oc2nc3c(cc2c1N)COC(C)(C)C3 | inconclusive: 25.1 µM [inhibitor, partial curve] |
| CCOC(=O)N1CCN(S(=O)(=O)c2ccc(C(=O)NNc3nc4cc(C)cc(C)c4s3)cc2)CC1 | active: 25.1 µM |
| COc1cccc(C2(O)CCN(C(=O)C3CCC3)CC2)c1 | inactive |
| Cc1nn2c(NCC(C)C)c3c(nc2c1-c1ccccc1)CCC3 | inconclusive: 35.5 µM [inhibitor, single point] |
| COC(=O)c1c(NC(=O)c2ccco2)sc2c1CCC2 | inconclusive: 35.5 µM [inhibitor, single point] |
| Cc1cccc(NC(=O)CN2CCN(CC(=O)Nc3cccc(C)c3)CC2)c1 | inactive |
| N#Cc1c(N)sc(=S)c2c1CCCCC2 | active: 22.4 µM |
| Cn1c(=O)c2c(c3ccccc31)OC(=O)CC2c1cccnc1 (stereo not given) | inconclusive: 22.4 µM [inhibitor, partial curve] |
| Cc1cc(=O)oc2c(CN3CCCCC3)c(O)c(Cl)cc12 | inconclusive: 3.16 µM [inhibitor, partial curve] |
| CC(C)(C)C(=O)[C@@H]1[C@@H]2C(=O)N(C3CCCCC3)C(=O)[C@@H]2[C@H]2c3ccccc3C=CN12 | inconclusive: 28.2 µM [inhibitor, partial curve] |
| Cc1sc2nc(SCC(=O)NCc3ccco3)n(-c3ccccc3)c(=O)c2c1C | inconclusive: 39.8 µM [inhibitor, single point] |
| CNc1ccc(Br)cc(C(=O)/C=C/c2ccc(OC)cc2OC)c1=O | inconclusive: 35.5 µM [inhibitor, single point] |
| O=C(Cc1cccs1)NC1C(=O)N2C(C(=O)[O-])=C(C[n+]3ccccc3)CSC12 (stereo not given) | inconclusive: 31.6 µM [inhibitor, single point] |
| N#C/C(=C(/O)c1ccc(C(=O)c2ccccc2)cc1)c1nc2ccccc2[nH]1 | inactive |
| CCC(C)(C)n1nnnc1C(c1ccccc1)N1CCN(C2CCCC2)CC1 (stereo not given) | inactive |
| Cn1nc(-c2ccccn2)nc2c(=O)n(C)c(=O)nc1-2 | active: 7.08 µM |
| O=C(N/N=C/c1ccc(N2CCOCC2)cc1)c1ccccc1NS(=O)(=O)c1cccs1 | inconclusive: 28.2 µM [inhibitor, partial curve] |

| Compound | Potency |
| --- | --- |
| COc1ccc(OC)c(C2CC(=O)N3CN(c4cccc(Cl)c4C)CSC3=C2C#N)c1 (stereo not given) | inconclusive: 39.8 µM [inhibitor, single point] |
| NC(=O)c1sc2nc3c(cc2c1N)CCCCCC3 | inconclusive: 28.2 µM [inhibitor, single point] |
| COc1cc(C2C(C#N)=C(N)Oc3cc(C)n(CCN4CCOCC4)c(=O)c32)cc(OC)c1OC (stereo not given) | inconclusive: 31.6 µM [inhibitor, single point] |
| Cc1cc(C)c2c(c1)/C(=N\N=c1\sc3ccccc3n1C)C(=O)N2 | inactive |
| O=C(N/N=C/c1ccc(O)c(O)c1O)/C(=C/c1ccc([N+](=O)[O-])cc1)NC(=O)c1ccccc1 | active: 10 µM |
| Cc1cc(=O)oc2cc(OCC(=O)Nc3ccc(S(=O)(=O)N(C)C)cc3)ccc12 | inconclusive: 28.2 µM [inhibitor, partial curve] |
| Nc1ccc(O)c(-c2nc3ccccc3s2)c1 | inconclusive: 28.2 µM [inhibitor, single point] |
| C=CCOc1ccc(-c2n[nH]c(=S)o2)cc1 | inconclusive: 17.8 µM [inhibitor, partial curve] |
| COc1ccc(-n2c(Cc3cccn3C)nnc2SCC(=O)Nc2ccc(F)cc2F)cc1 | inactive |
| O=C(Nc1nnc(-c2ccc(Cl)cc2)o1)c1ccccc1Br | inconclusive: 39.8 µM [inhibitor, single point] |
| CC(=O)C1CCC2C3CC(C)C4=CC(=O)CC[C@@]4(C)C3C(O)C[C@@]12C (stereo not given in full) | inactive |
| CCOc1ccc(-c2nc(C)c(C(C)=O)n2O)cc1 | inconclusive: 25.1 µM [inhibitor, single point] |
| CCOC(=O)C1CCCN(C(=O)c2cc3cc(Br)ccc3oc2=O)C1 (stereo not given) | inactive |
| COCCN(CCOC)c1nc(C)nc2c1nc(-c1ccccc1)n2CCCN1CCCCC1C (stereo not given) | inconclusive: 25.1 µM [inhibitor, partial curve] |
| S=C1Cc2ccccc2N1 | inconclusive: 31.6 µM [inhibitor, single point] |
| Cc1ccc(S(=O)(=O)N2CCN(c3nc(C(C)C)c4c(c3C#N)CC(C)(C)OC4)CC2)cc1 | inconclusive: 28.2 µM [inhibitor, partial curve] |
| CC(C)N1CCN(Cc2cccc(-c3ccco3)c2)CC1CCO (stereo not given) | inconclusive: 31.6 µM [inhibitor, partial curve] |
| COc1ccccc1/C=C/C=N/NC(=O)c1ccc2nc[nH]c2c1 | inconclusive: 39.8 µM [inhibitor, single point] |
| NNC(=S)Nc1ccc(Cl)cc1 | inconclusive: 10 µM [inhibitor, partial curve, poor fit] |
| Cn1c(-c2ccccc2)c(/C=N/NC(=O)c2cccnc2)c2ccccc21 | inactive |
| COc1ccc2[nH]cc(C(=O)CN3CCN(C/C=C/c4ccccc4)CC3)c2c1 | inconclusive: 25.1 µM [inhibitor, single point] |
| CCc1cc2c(C)ccc(C)c2nc1SCC(=O)Nc1c[nH]c(=O)[nH]c1=O | inconclusive: 39.8 µM [inhibitor, single point] |
